Measured values published in patent US20260207767A1 (ANAVEON, published 2026).

T1: high affinity trimeric IL-2R on CD4+CD25+FoxP3+ Treg cells of murine splenocytes (mouse, UniProt P01590 22-268; P16297 27-539; P34902 23-369)
T1 sequence (looked up) 1: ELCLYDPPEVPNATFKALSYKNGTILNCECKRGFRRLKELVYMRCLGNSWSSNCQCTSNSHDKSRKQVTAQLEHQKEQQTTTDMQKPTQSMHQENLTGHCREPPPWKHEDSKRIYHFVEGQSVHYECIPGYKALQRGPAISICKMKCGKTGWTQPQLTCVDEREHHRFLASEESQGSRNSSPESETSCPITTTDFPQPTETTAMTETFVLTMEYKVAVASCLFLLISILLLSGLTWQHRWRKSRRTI
T1 sequence (looked up) 2: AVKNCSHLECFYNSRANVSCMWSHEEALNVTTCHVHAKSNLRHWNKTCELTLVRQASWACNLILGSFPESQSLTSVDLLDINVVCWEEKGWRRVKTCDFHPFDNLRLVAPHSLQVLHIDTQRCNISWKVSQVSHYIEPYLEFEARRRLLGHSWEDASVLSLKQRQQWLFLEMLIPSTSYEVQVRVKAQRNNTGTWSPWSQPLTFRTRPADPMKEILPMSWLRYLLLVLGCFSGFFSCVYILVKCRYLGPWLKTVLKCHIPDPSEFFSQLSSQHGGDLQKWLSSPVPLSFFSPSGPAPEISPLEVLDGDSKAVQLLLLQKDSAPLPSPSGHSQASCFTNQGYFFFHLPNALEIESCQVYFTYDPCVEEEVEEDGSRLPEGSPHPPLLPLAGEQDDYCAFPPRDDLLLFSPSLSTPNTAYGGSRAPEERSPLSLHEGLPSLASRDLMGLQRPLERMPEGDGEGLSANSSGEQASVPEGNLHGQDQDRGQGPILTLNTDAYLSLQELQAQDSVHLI
T1 sequence (looked up) 3: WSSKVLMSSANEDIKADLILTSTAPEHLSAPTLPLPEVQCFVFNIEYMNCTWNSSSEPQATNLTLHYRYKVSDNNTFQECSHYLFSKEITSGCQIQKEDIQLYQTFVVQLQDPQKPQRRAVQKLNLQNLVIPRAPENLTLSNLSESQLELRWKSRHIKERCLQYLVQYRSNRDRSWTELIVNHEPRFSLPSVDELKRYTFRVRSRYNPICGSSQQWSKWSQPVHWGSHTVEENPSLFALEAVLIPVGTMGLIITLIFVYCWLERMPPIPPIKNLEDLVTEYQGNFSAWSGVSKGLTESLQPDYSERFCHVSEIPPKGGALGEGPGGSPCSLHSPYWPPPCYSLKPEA

T2: His-tagged recombinant CD25 (UniProt P01589 22-213, limits assumed)
T2 construct: also called IL-2R alpha chain
T2 sequence (looked up): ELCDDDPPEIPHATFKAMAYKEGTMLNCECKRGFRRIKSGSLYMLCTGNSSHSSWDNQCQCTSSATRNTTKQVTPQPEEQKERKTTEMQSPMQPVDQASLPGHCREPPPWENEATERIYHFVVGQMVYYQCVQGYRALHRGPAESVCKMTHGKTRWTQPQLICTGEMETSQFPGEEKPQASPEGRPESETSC

T3: trimeric IL-2 receptor (CD25/CD122/CD132) on HEK-Blue IL-2 reporter cells (UniProt P01589 22-272; P14784 27-551; P31785 23-369, limits assumed)
T3 sequence (looked up) 1: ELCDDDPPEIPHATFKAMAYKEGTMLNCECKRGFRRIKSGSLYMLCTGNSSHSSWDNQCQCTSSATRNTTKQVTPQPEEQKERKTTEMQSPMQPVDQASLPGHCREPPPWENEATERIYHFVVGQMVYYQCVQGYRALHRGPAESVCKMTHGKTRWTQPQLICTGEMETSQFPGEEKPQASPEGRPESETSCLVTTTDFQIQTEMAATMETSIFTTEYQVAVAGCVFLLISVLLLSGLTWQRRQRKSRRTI
T3 sequence (looked up) 2: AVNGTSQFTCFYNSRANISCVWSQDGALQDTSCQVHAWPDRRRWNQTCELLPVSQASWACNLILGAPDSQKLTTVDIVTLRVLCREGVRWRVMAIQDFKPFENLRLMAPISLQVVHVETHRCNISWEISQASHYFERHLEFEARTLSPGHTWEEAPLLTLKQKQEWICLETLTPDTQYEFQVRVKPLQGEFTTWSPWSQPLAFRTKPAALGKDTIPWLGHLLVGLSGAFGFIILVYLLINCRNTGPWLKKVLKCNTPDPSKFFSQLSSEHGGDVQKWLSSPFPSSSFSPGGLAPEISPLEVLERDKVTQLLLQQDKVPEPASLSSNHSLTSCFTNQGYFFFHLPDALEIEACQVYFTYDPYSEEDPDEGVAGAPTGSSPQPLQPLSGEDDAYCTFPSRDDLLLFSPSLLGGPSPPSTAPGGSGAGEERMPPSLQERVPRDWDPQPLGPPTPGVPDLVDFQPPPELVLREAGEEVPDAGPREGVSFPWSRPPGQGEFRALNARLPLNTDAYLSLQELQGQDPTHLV
T3 sequence (looked up) 3: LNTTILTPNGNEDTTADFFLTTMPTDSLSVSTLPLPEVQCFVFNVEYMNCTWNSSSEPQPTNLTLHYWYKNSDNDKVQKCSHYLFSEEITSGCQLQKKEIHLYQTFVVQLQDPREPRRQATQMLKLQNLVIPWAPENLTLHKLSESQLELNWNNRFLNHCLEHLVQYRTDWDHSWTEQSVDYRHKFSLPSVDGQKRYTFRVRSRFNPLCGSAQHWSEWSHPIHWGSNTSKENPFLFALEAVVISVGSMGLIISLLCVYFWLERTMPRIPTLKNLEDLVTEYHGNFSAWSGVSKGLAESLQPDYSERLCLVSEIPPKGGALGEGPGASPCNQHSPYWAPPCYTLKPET


Experiments:
[1] = molecular target: IL-2R on NK cells and CD8+ T cells of murine splenocytes (C57BL/6) (mouse); experiment: cell-based or functional assay
[2] = molecular target: T1, high affinity trimeric IL-2R on …; experiment: cell-based or functional assay
[3] = molecular target: T2, His-tagged recombinant CD25; experiment: SPR, CD25 captured
[4] = molecular target: T3, trimeric IL-2 receptor …; experiment: cell-based or functional assay
[5] = molecular target: anti-IL-2 antibody clone 5344; experiment: ELISA on clone 5344

| EC50 CD8 cells (nM), pSTAT5 [1] [nM] | EC50 NK cells (nM), pSTAT5 [1] [nM] | EC50 Treg cells (nM), pSTAT5 [2] [nM] | binding result [3] | EC50, HEK Blue IL-2 reporter assay (SEAP) [4] [pM] | EC50 [5] [pM] | Kd [3] [pM] | Binder |
| --- | --- | --- | --- | --- | --- | --- | --- |
| 18.6 | 1.5 | 4.8 | no binding (tested: 500 nM) | 3.9 | 200 |  | GYG794 (other, Antibody B IgG with IL-2CP in CDR-L1) heavy: QVQLVESGGGVVQPGRSLRLSCAASGYTFSSYLIEWVRQAPGKGLEWVAVINPGSGGTNYADSVKGRFTISADKSKNTAYLQMNSLRAEDTAVYYCARWRGDGYYAYFDVWGQGTTVTVSSASTKGPSVFPLAPSSKSTSGGTAALGCLVKDYFPEPVTVSWNSGALTSGVHTFPAVLQSSGLYSLSSVVTVPSSSLGTQTYICNVNHKPSNTKVDKRV[not shown - human IgG1 Fc with changes] light: EIVLTQSPATLSVSPGERATLSCRASQSVSYGGNFHLRPRDLISNINVIVLELKGSETTFMCEYADETATIVEFLNRWITFSQSIISTLTPTSSSTKKTQLQLEHLLLDLQMILNGINNYKNPKLTRMLTFKFYMPKKATELKHLQCLEEELKPLEEVLNLAQSKGGGDSYMNWYQQKPGQAPRLLIYAASNLASGIPARFSGSGSGTEFTLTISSLQSEDAAVYYCQQSNEDPYTFGGGTKVEIKRTVAAPSVFIFPPSDEQLKSGTASVVCLLNNFYPREAKVQWKVDNALQSGNSQESVTEQDSKDSTYSLSSTLTLSKADYEKHKVYACEVTHQGLSSPVTKSFNRGEC |
| 6.9 | 0.9 | 3.7 | no binding (tested: 500 nM) | 3.42 | 130 |  | ECV200 (other, Antibody B IgG with IL-2CP in CDR-L1) heavy: QVQLVESGGGVVQPGRSLRLSCAASGYTFSSYLIEWVRQAPGKGLEWVAVINPGSGGTNYADSVKGRFTISADKSKNTAYLQMNSLRAEDTAVYYCARWRGDGYYAYFDVWGQGTTVTVSSASTKGPSVFPLAPSSKSTSGGTAALGCLVKDYFPEPVTVSWNSGALTSGVHTFPAVLQSSGLYSLSSVVTVPSSSLGTQTYICNVNHKPSNTKVDKRV[not shown - human IgG1 Fc with changes] light: EIVLTQSPATLSVSPGERATLSCRASQSVSYGGGGSGNFHLRPRDLISNINVIVLELKGSETTFMCEYADETATIVEFLNRWITFSQSIISTLTPTSSSTKKTQLQLEHLLLDLQMILNGINNYKNPKLTRMLTFKFYMPKKATELKHLQCLEEELKPLEEVLNLAQSKGGGGSGGDSYMNWYQQKPGQAPRLLIYAASNLASGIPARFSGSGSGTEFTLTISSLQSEDAAVYYCQQSNEDPYTFGGGTKVEIKRTVAAPSVFIFPPSDEQLKSGTASVVCLLNNFYPREAKVQWKVDNALQSGNSQESVTEQDSKDSTYSLSSTLTLSKADYEKHKVYACEVTHQGLSSPVTKSFNRGEC |

More lines, now with the values behind:

| Binder | EC50 CD8 cells (nM), pSTAT5 [1] [nM] | EC50 NK cells (nM), pSTAT5 [1] [nM] | EC50 Treg cells (nM), pSTAT5 [2] [nM] | binding result [3] | EC50, HEK Blue IL-2 reporter assay (SEAP) [4] [pM] | EC50 [5] [pM] | Kd [3] [pM] |
| --- | --- | --- | --- | --- | --- | --- | --- |
| BFC885 (other, Antibody B IgG with IL-2CP in CDR-L1, 13/14 AA linkers) heavy: QVQLVESGGGVVQPGRSLRLSCAASGYTFSSYLIEWVRQAPGKGLEWVAVINPGSGGTNYADSVKGRFTISADKSKNTAYLQMNSLRAEDTAVYYCARWRGDGYYAYFDVWGQGTTVTVSSASTKGPSVFPLAPSSKSTSGGTAALGCLVKDYFPEPVTVSWNSGALTSGVHTFPAVLQSSGLYSLSSVVTVPSSSLGTQTYICNVNHKPSNTKVDKRV[not shown - human IgG1 Fc with changes] light: EIVLTQSPATLSVSPGERATLSCRASQSVSYGGGGSGGGGSGGGNFHLRPRDLISNINVIVLELKGSETTFMCEYADETATIVEFLNRWITFSQSIISTLTPTSSSTKKTQLQLEHLLLDLQMILNGINNYKNPKLTRMLTFKFYMPKKATELKHLQCLEEELKPLEEVLNLAQSKGGGGSGGGGSGGGGDSYMNWYQQKPGQAPRLLIYAASNLASGIPARFSGSGSGTEFTLTISSLQSEDAAVYYCQQSNEDPYTFGGGTKVEIKRTVAAPSVFIFPPSDEQLKSGTASVVCLLNNFYPREAKVQWKVDNALQSGNSQESVTEQDSKDSTYSLSSTLTLSKADYEKHKVYACEVTHQGLSSPVTKSFNRGEC | 26.4 | 2 | 0.9 |  | 5.09 | 250 | 54100 |
| DRO069 (other, Antibody B IgG with IL-2CP in CDR-L1; also called DRQ069) heavy: QVQLVESGGGVVQPGRSLRLSCAASGYTFSSYLIEWVRQAPGKGLEWVAVINPGSGGTNYADSVKGRFTISADKSKNTAYLQMNSLRAEDTAVYYCARWRGDGYYAYFDVWGQGTTVTVSSASTKGPSVFPLAPSSKSTSGGTAALGCLVKDYFPEPVTVSWNSGALTSGVHTFPAVLQSSGLYSLSSVVTVPSSSLGTQTYICNVNHKPSNTKVDKRV[not shown - human IgG1 Fc with changes] light: EIVLTQSPATLSVSPGERATLSCRASQSVSYGGGNFHLRPRDLISNINVIVLELKGSETTFMCEYADETATIVEFLNRWITFSQSIISTLTPTSSSTKKTQLQLEHLLLDLQMILNGINNYKNPKLTRMLTFKFYMPKKATELKHLQCLEEELKPLEEVLNLAQSKGGGGDSYMNWYQQKPGQAPRLLIYAASNLASGIPARFSGSGSGTEFTLTISSLQSEDAAVYYCQQSNEDPYTFGGGTKVEIKRTVAAPSVFIFPPSDEQLKSGTASVVCLLNNFYPREAKVQWKVDNALQSGNSQESVTEQDSKDSTYSLSSTLTLSKADYEKHKVYACEVTHQGLSSPVTKSFNRGEC | 6.8 | 0.9 | 6.6 | no binding (tested: 500 nM) | 3.45 | 110 |  |
